According to the RNAGym collection of RNA variant scans (doi:10.7554/elife.90254):
Read counts are not given, so values of variants with three or more changes are uncertain.

B1: LINE1-mini (parent)
chain: GGCAGAGCUCAACACAGCGUGGCAAAGUGGCUGUGGCUAGACUGCC

Variants of: B1
Assay: self-cleavage, relative activity (ratio to wild type); higher = more cleavage; in vitro, sequencing; the parent is a self-cleaving ribozyme
G5C U20C G40U gave a self-cleavage of 0.09.
Work on G5C C18U U20G yielded a self-cleavage of 0.06.
G5C C8A C10U U28A showed a self-cleavage of 0.09.
Variant G5C U32G G36U U38G has a self-cleavage of 0.03.
G5C C15U C31G showed a self-cleavage of 0.02.
With G5A G29C C31A U38A A39U U43A C46G the self-cleavage was 0.02.
G5U A16U G21U showed a self-cleavage of 0.08.
Work on G5U A6G C8G A12G A26C G44C yielded a self-cleavage of 0.02.
Work on G5U A14U A16U yielded a self-cleavage of 0.
In the case of G5C A6C U38A G44C, the self-cleavage is reported as 0.04.
G5C C18A A39C gave a self-cleavage of 0.02.
In the case of G5C G21U C37G, the self-cleavage is reported as 0.01.
For G5C A6U C46U, the self-cleavage was 0.05.
G5A G30A C46U showed a self-cleavage of 0.15.
Variant G5C C37A A41U C46G has a self-cleavage of 0.11.
With G5A G29C G35C A41C the self-cleavage was 0.05.
In the case of G5C A24C A39U, the self-cleavage is reported as 0.02.
Work on G5C C31U A41C yielded a self-cleavage of 0.01.
Work on G5C G17A G21A G27A C45G yielded a self-cleavage of 0.02.
For G5U A11U C15U C46U, the self-cleavage was 0.03.
With G5C G19A G29U C31A G36A C42G the self-cleavage was 0.01.
Variant G5C U9A A25U has a self-cleavage of 0.05.
For G5C C10A A24C, the self-cleavage was 0.07.
In the case of G5U A24U C31G, the self-cleavage is reported as 0.03.
Work on G5U A12G A16U yielded a self-cleavage of 0.05.
With G5C G19U C31A C37U G40U the self-cleavage was 0.04.
G5C C18G A26G G36A G44U gave a self-cleavage of 0.04.
Variant G5C A11U A25C A41U has a self-cleavage of 0.03.
For G5C C13U A14C U34A U43C, the self-cleavage was 0.02.
For G5C A14C C18A C23U G36C, the self-cleavage was 0.02.
With G5C U9C A14C U43A the self-cleavage was 0.01.
Work on G5C C8A U28C U32G C45G yielded a self-cleavage of 0.09.
With G5A U9G G36A the self-cleavage was 0.47.
With G5A G19U G30A U38A G40U the self-cleavage was 0.02.
Work on G5C C8A G17A C23A yielded a self-cleavage of 0.07.
Variant G5U A6G C15A U20G has a self-cleavage of 0.05.
In the case of G5C G36U C37U A41C, the self-cleavage is reported as 0.01.
Work on G5U A12U G30A G35C C37U yielded a self-cleavage of 0.09.
Work on G5A G19U U20C G29U G44A yielded a self-cleavage of 0.07.
In the case of G5A G7C A12G A16U C23G G27C U32A, the self-cleavage is reported as 0.01.
G5C G33U U38C gave a self-cleavage of 0.04.
G5A G7U A25G showed a self-cleavage of 0.37.
In the case of G5C G29U G30U G33A, the self-cleavage is reported as 0.05.
Variant G5C G36C C37A C46U has a self-cleavage of 0.05.
G5A G17A U28G showed a self-cleavage of 0.04.
G5C C8U A14U U34C C45A showed a self-cleavage of 0.26.
G5U A16U C46G showed a self-cleavage of 0.08.
In the case of G5C U34G C37A, the self-cleavage is reported as 0.04.
For G5C A6C C10U, the self-cleavage was 0.05.
G5C U32C C37U showed a self-cleavage of 0.01.
G5C C13U G27C C45G C46U gave a self-cleavage of 0.04.
G5C C13A G19U C31G C45U showed a self-cleavage of 0.02.
G5C A14C C18U C23G U34C G36A gave a self-cleavage of 0.02.
Variant G5A G21U C37U G44U has a self-cleavage of 0.04.
G5C A6G C46G showed a self-cleavage of 0.06.
G5C G22C C46G showed a self-cleavage of 0.01.
In the case of G5C C8U C18A G29U G35U, the self-cleavage is reported as 0.04.
For G5C G17A C18A, the self-cleavage was 0.01.
For G5C G7U A14G G22U, the self-cleavage was 0.63.
G5A U34C C45U gave a self-cleavage of 0.05.
With G5C G22A C23G the self-cleavage was 0.07.
Variant G5C G35U A41U C46U has a self-cleavage of 0.04.
For G5A G22U C31A U43A C46U, the self-cleavage was 0.02.
With G5C U20C G30A the self-cleavage was 0.04.
G5C C8A A14U G27U showed a self-cleavage of 0.6.
For G5U A12U G21C C37A C46U, the self-cleavage was 0.01.
For G5C C23U A25C U32A, the self-cleavage was 0.19.
In the case of G5C A14U G21U G30U U32C, the self-cleavage is reported as 0.09.
G5C G7U C8U C13U gave a self-cleavage of 1.08.
G5C A24G A26U gave a self-cleavage of 0.03.
G5C A25U G27C U34C C46A showed a self-cleavage of 0.14.
G5C C10A C13G G30U C42U C45G gave a self-cleavage of 0.02.
In the case of G5C U9A C31U, the self-cleavage is reported as 0.08.
G5C C13U G19U G30C gave a self-cleavage of 0.03.
With G5C U9G C10G C15U U28G U32A U38C the self-cleavage was 0.01.
Work on G5C C37U G40U yielded a self-cleavage of 0.
Variant G5A G29U C45U has a self-cleavage of 0.18.
G5C U9C G29A showed a self-cleavage of 0.03.
For G5C A11U G17C, the self-cleavage was 0.01.
G5A G17U G21U G40U gave a self-cleavage of 0.12.
With G5C G29A C46U the self-cleavage was 0.22.
G5C G17U C18A G19A C31U G35U gave a self-cleavage of 0.02.
In the case of G5A U28C U34C, the self-cleavage is reported as 0.05.
With G5U A16C G27C G40A the self-cleavage was 0.01.
Work on G5A G19A G35C U43A yielded a self-cleavage of 0.05.
With G5C A12U G30C the self-cleavage was 0.01.
Work on G5A G19U G22C A25C C45G yielded a self-cleavage of 0.05.
G5A U28C G29U showed a self-cleavage of 0.12.
G5A G19A G30U G33U U43C gave a self-cleavage of 0.09.
G5C U20C G21U gave a self-cleavage of 0.13.
With G5C G7U C15G G19U G35A G44U the self-cleavage was 0.18.
In the case of G5C A16C G17A A24G, the self-cleavage is reported as 0.06.
In the case of G5U A14C G21C C31U, the self-cleavage is reported as 0.23.
Work on G5A G21U A25U yielded a self-cleavage of 0.12.
Work on G5C G17U C45A yielded a self-cleavage of 0.
For G5C G27A G36U C45G, the self-cleavage was 0.01.
With G5C G29C A39C the self-cleavage was 0.03.
With G5C C13A C18U U43A the self-cleavage was 0.06.
In the case of G5U A6C U20A C23U G35U C45A, the self-cleavage is reported as 0.03.
In the case of G5C G7U G30C U43A, the self-cleavage is reported as 0.08.
In the case of G5U A14G G21A, the self-cleavage is reported as 0.14.
Variant G5U A6U G17C C42A has a self-cleavage of 0.55.
Work on G5C C8A A11C C13A yielded a self-cleavage of 0.02.
Variant G5C C13G U20C A41G C42G has a self-cleavage of 0.19.
With G5C A25U U38C the self-cleavage was 0.02.
G5C C8U U9A C13A G40U gave a self-cleavage of 0.13.
With G5A G17A G30U C46U the self-cleavage was 0.06.
With G5U A14U C15U U28C the self-cleavage was 0.03.
G5A G17A G21U C23A gave a self-cleavage of 0.05.
For G5U A14U A16C G33C, the self-cleavage was 0.05.
With G5C A26G G35U the self-cleavage was 0.05.
In the case of G5C G27C C31G, the self-cleavage is reported as 0.03.
Variant G5C G17U U34G G35U has a self-cleavage of 0.
G5U A14C A26G G35U G44U C45A gave a self-cleavage of 0.01.
With G5C G21C G33A the self-cleavage was 0.62.
With G5A U9A G22A G27C the self-cleavage was 0.11.
For G5A G7C A26U G27A C46G, the self-cleavage was 0.07.
With G5C C15G A26G C37G the self-cleavage was 0.01.
Variant G5A U9C G19C A41C U43G has a self-cleavage of 0.
Work on G5A G22C C42U yielded a self-cleavage of 0.58.
G5C U9A A11G C23A gave a self-cleavage of 0.01.
For G5U A11C G29A G35A G44A, the self-cleavage was 0.
For G5C A12C A14C C15U G21U G36U, the self-cleavage was 0.02.
In the case of G5C A11G A24U, the self-cleavage is reported as 0.02.
With G5C A11C C13U the self-cleavage was 0.03.
With G5C C18U C31A A39C C42A the self-cleavage was 0.03.
G5A U9A C13A gave a self-cleavage of 0.65.
G5C C15A A41G showed a self-cleavage of 0.05.
Variant G5U A12U C13U C15U G22U C31A C42U has a self-cleavage of 0.03.
Work on G5C A6G C23A U43A yielded a self-cleavage of 0.02.
Work on G5C A12G G17A G27U U28A A39U C42A yielded a self-cleavage of 0.06.
G5C C8A C37G C46U showed a self-cleavage of 0.34.
Variant G5U A6G G22C G33U G40U has a self-cleavage of 0.
Variant G5U A12C U28A U32G has a self-cleavage of 0.02.
For G5C A11C A24G G30U G40C C45A C46U, the self-cleavage was 0.01.
For G5C A12G G22A G30U C46A, the self-cleavage was 0.01.
In the case of G5C A12U C18U G27U G33A, the self-cleavage is reported as 0.13.
Work on G5C C8A A14C C18A G19A yielded a self-cleavage of 0.07.
G5C A11U G29U C46G gave a self-cleavage of 0.04.
In the case of G5C U9A G17A U38G, the self-cleavage is reported as 0.12.
With G5C C18U G22U A25U C37U C45G the self-cleavage was 0.02.
With G5A U9G A14G G30A G44A the self-cleavage was 0.02.
G5C A16C U20G G21C A26U gave a self-cleavage of 0.02.
Variant G5C A6U G21U A25C has a self-cleavage of 0.03.
Variant G5C A6G G35U A39C A41G has a self-cleavage of 0.01.
G5U A24G G35U gave a self-cleavage of 0.01.
In the case of G5C C10A C13U G17U A24U G40A, the self-cleavage is reported as 0.03.
G5A U32A C46G showed a self-cleavage of 0.02.
Variant G5C U20C G21U A25G U32A G33C C37G has a self-cleavage of 0.
G5C G7U C15G A16G U20A gave a self-cleavage of 0.06.
For G5C G19A C31A G40A, the self-cleavage was 0.03.
G5C C13A C15A showed a self-cleavage of 0.06.
Work on G5U A14U G21U yielded a self-cleavage of 0.01.
For G5A U9G G29C U43A, the self-cleavage was 0.17.
Variant G5A G19A U34C has a self-cleavage of 0.07.
G5C A6G C8U U32G gave a self-cleavage of 0.03.
For G5C C13U G22U, the self-cleavage was 0.31.
Work on G5C C18G A25U yielded a self-cleavage of 0.03.
Work on G5C A6C A39U yielded a self-cleavage of 0.03.
For G5A G30U G40C, the self-cleavage was 0.04.
G5C G21A G40U A41U showed a self-cleavage of 0.15.
G5C G17C G21A C37U gave a self-cleavage of 0.04.
For G5A G7U A11C G33C, the self-cleavage was 0.01.
Variant G5U A6C A26U U43C has a self-cleavage of 0.06.
Variant G5C G17A C18A U20A G22U C31A U38A C42A has a self-cleavage of 0.1.
For G5C A12G A39G C42G, the self-cleavage was 0.01.
For G5C C10A C13G C15U C18U G29A G35A, the self-cleavage was 0.02.
